Measurements taken from the DeepSol protein solubility set.

Assay: soluble on expression in E. coli; label from the status in PepcDB or PDB records

MGSDKIHHHHHHMAAPVVAPPGVVVSRANKRSGAGPGGSGGGGARGAEEEPPPPLQAVLVADSFDRRFFPISKDQPRVLLPLANVALIDYTLEFLTATGVQETFVFCCWKAAQIKEHLLKSKWCRPTSLNVVRIITSELYRSLGDVLRDVDAKALVRSDFLLVYGDVISNINITRALEEHRLRRKLEKNVSVMTMIFKESSPSHPTRCHEDNVVVAVDSTTNRVLHFQKTQGLRRFAFPLSLFQGSSDGVEVRYDLLDCHISICSPQVAQLFTDNFDYQTRDDFVR[gap - about 20 residues]VSNLHMYSAVCADVIRRWVYPLTPEANFTDSTTQSCTHSRHNIYRGPEVSLGHGSILEENVLLGSGTVIGSNCFITNSVIGPGCHIGDNVVLDQTYLWQGVRVAAGAQIHQSLLCDNAEVKERVTLKPRSVLTSQVVVGPNITLPEGSVISLHPPDAEEDEDDGEFSDDSGADQEKDKVKMKGYNPAEVGAAGKGYLWKAAGMNMEEEEELQQNLWGLKINMEEESESESEQSMDSEEPDSRGGSPQMDDIKVFQNEVLGTLQRGKEENISCDNLVLEINSLKYAYNVSLKEVMQVLSHVVLEFPLQQMDSPLDSSRYCALLLPLLKAWSPVFRNYIKRAADHLEALAAIEDFFLEHEALGISMAKVLMAFYQLEILAEETILSWFSQRDTTDKGQQLRKNQQLQRFIQWLKEAEEESSEDD
soluble on expression in E. coli: not soluble
